The values that follow come from the supplement of paper PMC10037445.

Assay [1] has as its system RAW-Dual. Briefly: NF-kB SEAP reporter activity, fold change vs agonist alone; higher = enhanced NF-kB activity. The following applies: library stock concentration (final ~1000-fold dilution): 10 mM. In short, it runs like this: (§1)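 Cytotoxic wells were those whose IncuCyte confluency was below 70% of agonist controls in both mask sets. The cells were RAW-Dual macrophages at 50,000 cells/well in DMEM on 384-well plates, dosed with 50 nL of library stock by pin tool, stimulated with a PRR agonist 1 h later, and kept at 37 °C, 5% CO2 for 20 hours. IRF and NF-κB reporter activity, as fold change over agonist-alone wells, came from supernatant read by QuantiLuc luminescence and QuantiBlue absorbance, respectively.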

Assay [2] has as its system RAW-Dual. The assay can be described thus: NF-kB SEAP reporter activity, fold change vs agonist alone; cytotoxicity flag (confluency mask): not cytotoxic; higher = enhanced NF-kB activity. In short, it runs like this:
as §1

For assay [3], the system named is RAW-Dual. The assay can be described thus: NF-kB SEAP reporter activity, fold change vs agonist alone; cytotoxicity flag (confluency mask): cytotoxic (confluency <70% of control); higher = enhanced NF-kB activity. In short, it runs like this: as §1
The mark [4] stands for this setting: cytotoxicity flag (confluency mask): not cytotoxic, agonist: Imiquimod (TLR7) […].
Setting [5] is: cytotoxicity flag (confluency mask): not cytotoxic, agonist: MPLA (TLR4) […].
Setting [6] is: agonist: ODN 1826 (TLR9) 0.5 ug/mL.
[7] abbreviates: agonist: Pam2CSK4 (TLR2/6) 0.1 ug/mL.
[8] abbreviates: agonist: Pam3CSK4 (TLR2/1) 0.1 ug/mL.
Setting [9] is: cytotoxicity flag (confluency mask): cytotoxic (confluency <70% of control), agonist: Imiquimod (TLR7) […].
Setting [10] is: cytotoxicity flag (confluency mask): cytotoxic (confluency <70% of control), agonist: MPLA (TLR4) […].

Several values for one entry are separate records, joined by “and”; a condition that tells them apart may be missing. Equal entries are not always repeated. Whole data set: some 2,900 compounds, median “NF-kB SEAP reporter activity, fold change vs agonist alone” near 0.99, cut for the highest 2% near 2.6. Some of the results follow.

`CC(=N)NCc1cccc(CN)c1.Cl.Cl`: the entries for the “NF-kB SEAP reporter activity” value with RAW-Dual [1] (setting [4]) and in the assay on RAW-Dual [1] (setting [5]) were 1.08 and 1.03, respectively.

For `CC(=N)NCc1cccc(CN)c1.Cl.Cl` (library stock concentration (final ~1000-fold dilution): 10 mM), the “NF-kB SEAP reporter activity” value with RAW-Dual [2] (agonist: LPS (TLR4) 0.1 ug/mL) stood at 0.956; in the assay on RAW-Dual [2] (setting [6]), 1.03; with RAW-Dual [2] (setting [7]), 1.02; in the assay with RAW-Dual [2] (setting [8]), 0.859.

In the case of `CCN1C(=O)CNc2ncc(-c3ccc(-c4nc[nH]n4)nc3C)nc21`, the “NF-kB SEAP reporter activity” value in the assay on RAW-Dual [1] (setting [4]) stood at 0.935; with RAW-Dual [1] (setting [5]) it was 1.57.

In the case of `CCN1C(=O)CNc2ncc(-c3ccc(-c4nc[nH]n4)nc3C)nc21` (library stock concentration (final ~1000-fold dilution): 10 mM), the “NF-kB SEAP reporter activity” value in the assay on RAW-Dual [2] (agonist: LPS (TLR4) 0.1 ug/mL) worked out at 1.88; with RAW-Dual [2] (setting [6]) it was 0.928; in the assay on RAW-Dual [2] (setting [7]), 0.753; with RAW-Dual [2] (setting [8]), 0.649.

For `COc1ccc(CNC(=O)CCl)cc1OC`, the “NF-kB SEAP reporter activity” value in the assay with RAW-Dual [1] (setting [4]) was determined as 1.02; in the assay on RAW-Dual [1] (setting [5]), 0.962.

Take `COc1ccc(CNC(=O)CCl)cc1OC` (library stock concentration (final ~1000-fold dilution): 10 mM): the “NF-kB SEAP reporter activity” value came to 0.67 in the assay on RAW-Dual [2] (agonist: LPS (TLR4) 0.1 ug/mL), 0.674 in the assay with RAW-Dual [2] (setting [6]), 0.728 in the assay on RAW-Dual [2] (setting [7]) and 0.679 in the assay with RAW-Dual [2] (setting [8]).

As for `C=CC1CC1(NC(=O)C1CC2CN1C(=O)C(C(C)(C)C)NC(=O)OC1CC1CCCCCc1nc3ccc(OC)cc3nc1O2)C(=O)NS(=O)(=O)C1CC1` (stereo unspecified), the results for the “NF-kB SEAP reporter activity” value in the assay on RAW-Dual [1] (setting [4]) and in the assay with RAW-Dual [1] (setting [5]) were 1.3 and 1.22, respectively.

Consider `C=CC1CC1(NC(=O)C1CC2CN1C(=O)C(C(C)(C)C)NC(=O)OC1CC1CCCCCc1nc3ccc(OC)cc3nc1O2)C(=O)NS(=O)(=O)C1CC1` (stereo unspecified) (library stock concentration (final ~1000-fold dilution): 10 mM), for which the “NF-kB SEAP reporter activity” value stood at 1.3 with RAW-Dual [2] (agonist: LPS (TLR4) 0.1 ug/mL), 1.46 in the assay on RAW-Dual [2] (setting [6]), 0.913 in the assay on RAW-Dual [2] (setting [7]) and 0.835 in the assay on RAW-Dual [2] (setting [8]).

Take `COc1cc2oc(=O)ccc2c(OC)c1CC(O)C(C)(C)O` (stereo unspecified) (library stock concentration (final ~1000-fold dilution): 10 mM): the “NF-kB SEAP reporter activity” value in the assay on RAW-Dual [2] (agonist: LPS (TLR4) 0.1 ug/mL) came to 1.11; with RAW-Dual [2] (setting [6]), 0.972; with RAW-Dual [2] (setting [7]), 1.08; in the assay on RAW-Dual [2] (setting [8]), 1.38.

`COc1cc2oc(=O)ccc2c(OC)c1CC(O)C(C)(C)O` (stereo unspecified): the “NF-kB SEAP reporter activity” value amounted to 0.936 in the assay on RAW-Dual [1] (setting [4]) and 0.984 with RAW-Dual [1] (setting [5]).

As for `COc1cc(/C=C/C(=O)O)ccc1O` (library stock concentration (final ~1000-fold dilution): 10 mM), the “NF-kB SEAP reporter activity” value with RAW-Dual [2] (agonist: LPS (TLR4) 0.1 ug/mL) came to 1.16; in the assay on RAW-Dual [2] (setting [6]) it was 1.12; in the assay with RAW-Dual [2] (setting [7]), 1.17; in the assay on RAW-Dual [2] (setting [8]), 1.04.

On to `COc1cc(/C=C/C(=O)O)ccc1O`, for which the “NF-kB SEAP reporter activity” value was 0.903 in the assay with RAW-Dual [1] (setting [4]) and 1.09 with RAW-Dual [1] (setting [5]).

With `O=C(NC1CCOCC1)c1ccc(-c2cc(-c3c[nH]nc3-c3ccccn3)ccn2)cc1`, the “NF-kB SEAP reporter activity” value was 1.11 in the assay with RAW-Dual [1] (setting [4]) and 1.55 in the assay on RAW-Dual [1] (setting [5]).

As to `O=C(NC1CCOCC1)c1ccc(-c2cc(-c3c[nH]nc3-c3ccccn3)ccn2)cc1` (library stock concentration (final ~1000-fold dilution): 10 mM), the “NF-kB SEAP reporter activity” value amounted to 1.67 in the assay on RAW-Dual [2] (agonist: LPS (TLR4) 0.1 ug/mL), 1.25 in the assay on RAW-Dual [2] (setting [6]), 0.958 in the assay on RAW-Dual [2] (setting [7]) and 1.14 in the assay with RAW-Dual [2] (setting [8]).

`CC(C)C(C(=O)O)N1C(=O)/C(=C/c2ccc(Br)cc2)SC1=S` (stereo unspecified): the results for the “NF-kB SEAP reporter activity” value in the assay with RAW-Dual [1] (setting [4]) and in the assay on RAW-Dual [1] (setting [5]) were 0.992 and 1.01, respectively.

As for `CC(C)C(C(=O)O)N1C(=O)/C(=C/c2ccc(Br)cc2)SC1=S` (stereo unspecified) (library stock concentration (final ~1000-fold dilution): 10 mM), the “NF-kB SEAP reporter activity” value came to 1.12 with RAW-Dual [2] (agonist: LPS (TLR4) 0.1 ug/mL), 0.953 with RAW-Dual [2] (setting [6]), 0.947 in the assay with RAW-Dual [2] (setting [7]) and 1.05 in the assay on RAW-Dual [2] (setting [8]).

On to `NC(=O)c1ccc(-c2nc(-c3ccc4c(c3)OCO4)c(-c3ccccn3)[nH]2)cc1`, for which the “NF-kB SEAP reporter activity” value is 1.13 with RAW-Dual [1] (setting [4]) and 1.4 with RAW-Dual [1] (setting [5]).

In the case of `NC(=O)c1ccc(-c2nc(-c3ccc4c(c3)OCO4)c(-c3ccccn3)[nH]2)cc1` (library stock concentration (final ~1000-fold dilution): 10 mM), the “NF-kB SEAP reporter activity” value with RAW-Dual [2] (agonist: LPS (TLR4) 0.1 ug/mL) stood at 2.2; in the assay with RAW-Dual [2] (setting [6]), 1.28; in the assay on RAW-Dual [2] (setting [7]) it was 0.845; with RAW-Dual [2] (setting [8]), 1.1.

For `COCCCOc1cc(CC(CC(N)C(O)CC(C(=O)NCC(C)(C)C(N)=O)C(C)C)C(C)C)ccc1OC` (stereo unspecified) (library stock concentration (final ~1000-fold dilution): 10 mM), the “NF-kB SEAP reporter activity” value was 1.36 and 1.31 with RAW-Dual [2] (agonist: LPS (TLR4) 0.1 ug/mL); 1.57 and 0.983 with RAW-Dual [2] (setting [6]); 1.09 and 0.934 with RAW-Dual [2] (setting [7]); 1.04 and 1.06 in the assay on RAW-Dual [2] (setting [8]).

Turning to `CN(C)C/C=C/C(=O)Nc1cc2c(Nc3ccc(F)c(Cl)c3)ncnc2cc1OC1CCOC1` (stereo unspecified), the “NF-kB SEAP reporter activity” value turned out to be 2.21 in the assay on RAW-Dual [1] (setting [9]) and 0.295 in the assay on RAW-Dual [1] (setting [10]).

With `CN(C)C/C=C/C(=O)Nc1cc2c(Nc3ccc(F)c(Cl)c3)ncnc2cc1OC1CCOC1` (stereo unspecified) (library stock concentration (final ~1000-fold dilution): 10 mM), the “NF-kB SEAP reporter activity” value came out at 0.252 with RAW-Dual [3] (agonist: LPS (TLR4) 0.1 ug/mL), 0.201 in the assay on RAW-Dual [3] (setting [6]), 0.295 in the assay with RAW-Dual [3] (setting [7]) and 0.227 in the assay with RAW-Dual [3] (setting [8]).

For the compound `COc1ccc(C2Sc3ccccc3N(CCN(C)C)C(=O)C2OC(C)=O)cc1.Cl` (stereo unspecified) (library stock concentration (final ~1000-fold dilution): 10 mM), the “NF-kB SEAP reporter activity” value was determined as 1.26 in the assay on RAW-Dual [2] (agonist: LPS (TLR4) 0.1 ug/mL), 0.845 in the assay on RAW-Dual [2] (setting [6]), 1.01 with RAW-Dual [2] (setting [7]) and 1.14 in the assay on RAW-Dual [2] (setting [8]).

In the case of `COc1ccc(C2Sc3ccccc3N(CCN(C)C)C(=O)C2OC(C)=O)cc1.Cl` (stereo unspecified), the “NF-kB SEAP reporter activity” value in the assay with RAW-Dual [1] (setting [4]) was found to be 1.17; with RAW-Dual [1] (setting [5]) it was 0.987.

For the compound `Nc1nc(Cl)nc2c1ncn2C1OC(CO)C(O)C1F` (stereo unspecified) (library stock concentration (final ~1000-fold dilution): 10 mM), the “NF-kB SEAP reporter activity” value came to 1.78 in the assay on RAW-Dual [3] (agonist: LPS (TLR4) 0.1 ug/mL), 2.41 with RAW-Dual [3] (setting [6]), 1.53 in the assay with RAW-Dual [3] (setting [7]) and 1.59 in the assay on RAW-Dual [3] (setting [8]).

As for `Nc1nc(Cl)nc2c1ncn2C1OC(CO)C(O)C1F` (stereo unspecified), the “NF-kB SEAP reporter activity” value with RAW-Dual [1] (setting [9]) is 2.06; with RAW-Dual [1] (setting [10]), 1.74.
